# Experimental data taken from the supplement of paper PMC10037445.
# “And” between values parts separate entries of the source, which are not always exact repeats. Identical values can stand only once. In all, about 2,900 compounds were measured (“NF-kB SEAP reporter activity, fold change vs agonist alone”: median about 0.99, highest 2% from about 2.6 on). Some of the results follow.
# Key:
# RAW-Dual [1] = experiment: NF-kB SEAP reporter activity, fold change vs agonist alone; cytotoxicity flag (confluency mask): not cytotoxic; higher = enhanced NF-kB activity
# Procedure, shortened: (§1)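 Reporter activity is given as fold change relative to agonist-alone wells. To measure it, 50 nL of library stock was pin-tooled onto RAW-Dual macrophages (50,000 cells/well, DMEM, 384-well plates), a PRR agonist followed 1 h later, and cells stayed at 37 °C, 5% CO2. Twenty hours on, supernatant was assayed for IRF (QuantiLuc luminescence) and NF-κB (QuantiBlue, 620 nm absorbance), and wells under 70% of agonist-control IncuCyte confluency in both mask sets were marked cytotoxic.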
# RAW-Dual [2] = experiment: NF-kB SEAP reporter activity, fold change vs agonist alone; higher = enhanced NF-kB activity
# Procedure, shortened: as §1
# RAW-Dual [3] = experiment: NF-kB SEAP reporter activity, fold change vs agonist alone; cytotoxicity flag (confluency mask): cytotoxic (confluency <70% of control); higher = enhanced NF-kB activity
# Procedure, shortened: as §1
# [4] = agonist: ODN 1826 (TLR9) 0.5 ug/mL
# [5] = agonist: Pam2CSK4 (TLR2/6) 0.1 ug/mL
# [6] = agonist: Pam3CSK4 (TLR2/1) 0.1 ug/mL
# [7] = library stock concentration (final ~1000-fold dilution): 10 mM, cytotoxicity flag (confluency mask): not cytotoxic, agonist: Imiquimod (TLR7) […]
# [8] = library stock concentration (final ~1000-fold dilution): 10 mM, cytotoxicity flag (confluency mask): not cytotoxic, agonist: MPLA (TLR4) […]
# [9] = library stock concentration (final ~1000-fold dilution): 10 mM, cytotoxicity flag (confluency mask): cytotoxic (confluency <70% of control), agonist: Imiquimod (TLR7) […]
# [10] = library stock concentration (final ~1000-fold dilution): 10 mM, cytotoxicity flag (confluency mask): cytotoxic (confluency <70% of control), agonist: MPLA (TLR4) […]
compound,measurement,setting,value
CCOc1cc(N)c(Cl)cc1C(=O)NCC1CN(Cc2ccc(F)cc2)CCO1.O=C(O)CC(O)(CC(=O)O)C(=O)O (stereo unspecified) (library stock concentration (final ~1000-fold dilution): 10 mM),NF-kB SEAP reporter activity,RAW-Dual [1]; agonist: LPS (TLR4) 0.1 ug/mL,1.02
same,NF-kB SEAP reporter activity,RAW-Dual [1]; [4],1.09
same,NF-kB SEAP reporter activity,RAW-Dual [1]; [5],0.988
same,NF-kB SEAP reporter activity,RAW-Dual [1]; [6],1.11
CCOc1cc(N)c(Cl)cc1C(=O)NCC1CN(Cc2ccc(F)cc2)CCO1.O=C(O)CC(O)(CC(=O)O)C(=O)O (stereo unspecified),NF-kB SEAP reporter activity,RAW-Dual [2]; [7],0.993
same,NF-kB SEAP reporter activity,RAW-Dual [2]; [8],1.05
O=C(Oc1cccc(F)c1OC(=O)c1cccc(O)c1)c1cccc(O)c1,NF-kB SEAP reporter activity,RAW-Dual [2]; [9],0.964
same,NF-kB SEAP reporter activity,RAW-Dual [2]; [10],1.24
O=C(Oc1cccc(F)c1OC(=O)c1cccc(O)c1)c1cccc(O)c1 (library stock concentration (final ~1000-fold dilution): 10 mM),NF-kB SEAP reporter activity,RAW-Dual [3]; agonist: LPS (TLR4) 0.1 ug/mL,1.21
same,NF-kB SEAP reporter activity,RAW-Dual [3]; [4],0.597
same,NF-kB SEAP reporter activity,RAW-Dual [3]; [5],0.639
same,NF-kB SEAP reporter activity,RAW-Dual [3]; [6],0.541
CCn1c(=O)c(-c2ccc(Cl)cc2Cl)cc2cnc(Nc3ccc(N4CCNCC4)c(F)c3)nc21,NF-kB SEAP reporter activity,RAW-Dual [2]; [9],0.95
same,NF-kB SEAP reporter activity,RAW-Dual [2]; [10],0.735
CCn1c(=O)c(-c2ccc(Cl)cc2Cl)cc2cnc(Nc3ccc(N4CCNCC4)c(F)c3)nc21 (library stock concentration (final ~1000-fold dilution): 10 mM),NF-kB SEAP reporter activity,RAW-Dual [3]; agonist: LPS (TLR4) 0.1 ug/mL,0.244
same,NF-kB SEAP reporter activity,RAW-Dual [3]; [4],1.06
same,NF-kB SEAP reporter activity,RAW-Dual [3]; [5],0.337
same,NF-kB SEAP reporter activity,RAW-Dual [3]; [6],0.331
COc1ccc(Cl)cc1NC(=O)Nc1cc(C)nc2ccccc12 (library stock concentration (final ~1000-fold dilution): 10 mM),NF-kB SEAP reporter activity,RAW-Dual [1]; agonist: LPS (TLR4) 0.1 ug/mL,1.18
same,NF-kB SEAP reporter activity,RAW-Dual [1]; [4],1.05
same,NF-kB SEAP reporter activity,RAW-Dual [1]; [5],0.871
same,NF-kB SEAP reporter activity,RAW-Dual [1]; [6],0.996
COc1ccc(Cl)cc1NC(=O)Nc1cc(C)nc2ccccc12,NF-kB SEAP reporter activity,RAW-Dual [2]; [7],0.868
same,NF-kB SEAP reporter activity,RAW-Dual [2]; [8],1.04
c1ccc(-c2ccc(C(c3ccccc3)n3ccnc3)cc2)cc1 (stereo unspecified),NF-kB SEAP reporter activity,RAW-Dual [2]; [7],0.86
same,NF-kB SEAP reporter activity,RAW-Dual [2]; [8],0.867
c1ccc(-c2ccc(C(c3ccccc3)n3ccnc3)cc2)cc1 (stereo unspecified) (library stock concentration (final ~1000-fold dilution): 10 mM),NF-kB SEAP reporter activity,RAW-Dual [1]; agonist: LPS (TLR4) 0.1 ug/mL,1.01
same,NF-kB SEAP reporter activity,RAW-Dual [1]; [4],0.704
same,NF-kB SEAP reporter activity,RAW-Dual [1]; [5],0.589
same,NF-kB SEAP reporter activity,RAW-Dual [1]; [6],0.574
COc1cc2c(cc1O)CC[n+]1cc3c(OC)c(OC)ccc3cc1-2 (library stock concentration (final ~1000-fold dilution): 10 mM),NF-kB SEAP reporter activity,RAW-Dual [1]; agonist: LPS (TLR4) 0.1 ug/mL,1.01 and 1.19
same,NF-kB SEAP reporter activity,RAW-Dual [1]; [4],0.974 and 1.04
same,NF-kB SEAP reporter activity,RAW-Dual [1]; [5],0.965 and 1.09
same,NF-kB SEAP reporter activity,RAW-Dual [1]; [6],1.1 and 1.11
O=c1[nH]c2ccccc2n1CCN1CCN(c2cccc(C(F)(F)F)c2)CC1 (library stock concentration (final ~1000-fold dilution): 10 mM),NF-kB SEAP reporter activity,RAW-Dual [1]; agonist: LPS (TLR4) 0.1 ug/mL,0.314
same,NF-kB SEAP reporter activity,RAW-Dual [1]; [4],0.45
same,NF-kB SEAP reporter activity,RAW-Dual [1]; [5],0.284
same,NF-kB SEAP reporter activity,RAW-Dual [1]; [6],0.386
O=c1[nH]c2ccccc2n1CCN1CCN(c2cccc(C(F)(F)F)c2)CC1,NF-kB SEAP reporter activity,RAW-Dual [2]; [7],0.669
same,NF-kB SEAP reporter activity,RAW-Dual [2]; [8],0.534
COc1cc(/C=C/C(=O)/C=C(O)/C=C/c2ccc(O)c(OC)c2)ccc1O,NF-kB SEAP reporter activity,RAW-Dual [2]; [7],0.614
same,NF-kB SEAP reporter activity,RAW-Dual [2]; [8],0.892
COc1cc(/C=C/C(=O)/C=C(O)/C=C/c2ccc(O)c(OC)c2)ccc1O (library stock concentration (final ~1000-fold dilution): 10 mM),NF-kB SEAP reporter activity,RAW-Dual [1]; agonist: LPS (TLR4) 0.1 ug/mL,0.794
same,NF-kB SEAP reporter activity,RAW-Dual [1]; [4],0.82
same,NF-kB SEAP reporter activity,RAW-Dual [1]; [5],1.16
same,NF-kB SEAP reporter activity,RAW-Dual [1]; [6],1.2
COC(=O)C1=C(C)NC(C)=C(C(=O)OC(C)(C)CN(C)CCC(c2ccccc2)c2ccccc2)C1c1cccc([N+](=O)[O-])c1 (stereo unspecified) (library stock concentration (final ~1000-fold dilution): 10 mM),NF-kB SEAP reporter activity,RAW-Dual [1]; agonist: LPS (TLR4) 0.1 ug/mL,1.02
same,NF-kB SEAP reporter activity,RAW-Dual [1]; [4],0.271
same,NF-kB SEAP reporter activity,RAW-Dual [1]; [5],0.383
same,NF-kB SEAP reporter activity,RAW-Dual [1]; [6],0.287
COC(=O)C1=C(C)NC(C)=C(C(=O)OC(C)(C)CN(C)CCC(c2ccccc2)c2ccccc2)C1c1cccc([N+](=O)[O-])c1 (stereo unspecified),NF-kB SEAP reporter activity,RAW-Dual [2]; [7],0.627
same,NF-kB SEAP reporter activity,RAW-Dual [2]; [8],1.3
CCCNC(=O)c1cn2ncnc(Nc3cc(C(=O)NC4CC4)ccc3C)c2c1C (library stock concentration (final ~1000-fold dilution): 10 mM),NF-kB SEAP reporter activity,RAW-Dual [1]; agonist: LPS (TLR4) 0.1 ug/mL,1.27
same,NF-kB SEAP reporter activity,RAW-Dual [1]; [4],0.685
same,NF-kB SEAP reporter activity,RAW-Dual [1]; [5],0.417
same,NF-kB SEAP reporter activity,RAW-Dual [1]; [6],0.467
CCCNC(=O)c1cn2ncnc(Nc3cc(C(=O)NC4CC4)ccc3C)c2c1C,NF-kB SEAP reporter activity,RAW-Dual [2]; [7],0.719
same,NF-kB SEAP reporter activity,RAW-Dual [2]; [8],1.01
CC1CC2C3CCC4=CC(=O)C=CC4(C)C3(F)C(O)CC2(C)C1(O)C(=O)COP(=O)(O)O (stereo unspecified) (library stock concentration (final ~1000-fold dilution): 10 mM water),NF-kB SEAP reporter activity,RAW-Dual [1]; agonist: LPS (TLR4) 0.1 ug/mL,1.42
same,NF-kB SEAP reporter activity,RAW-Dual [1]; [4],1.53
same,NF-kB SEAP reporter activity,RAW-Dual [1]; [5],2
same,NF-kB SEAP reporter activity,RAW-Dual [1]; [6],1.79
CC1CC2C3CCC4=CC(=O)C=CC4(C)C3(F)C(O)CC2(C)C1(O)C(=O)COP(=O)(O)O (stereo unspecified),NF-kB SEAP reporter activity,"RAW-Dual [2]; library stock concentration (final ~1000-fold dilution): 10 mM water, cytotoxicity flag (confluency mask): not cytotoxic, agonist: Imiquimod (TLR7) […]",1.19
same,NF-kB SEAP reporter activity,"RAW-Dual [2]; library stock concentration (final ~1000-fold dilution): 10 mM water, cytotoxicity flag (confluency mask): not cytotoxic, agonist: MPLA (TLR4) […]",1.17
O=C(Nc1cccnc1)c1cc(-c2ccnc(F)c2)ccc1OCc1ccccc1 (library stock concentration (final ~1000-fold dilution): 10 mM),NF-kB SEAP reporter activity,RAW-Dual [1]; agonist: LPS (TLR4) 0.1 ug/mL,1.6
same,NF-kB SEAP reporter activity,RAW-Dual [1]; [4],0.937
same,NF-kB SEAP reporter activity,RAW-Dual [1]; [5],1.1
same,NF-kB SEAP reporter activity,RAW-Dual [1]; [6],1.32
O=C(Nc1cccnc1)c1cc(-c2ccnc(F)c2)ccc1OCc1ccccc1,NF-kB SEAP reporter activity,RAW-Dual [2]; [7],1.08
same,NF-kB SEAP reporter activity,RAW-Dual [2]; [8],1.12
CSCC(N)C(=O)O (stereo unspecified) (library stock concentration (final ~1000-fold dilution): 10 mM),NF-kB SEAP reporter activity,RAW-Dual [1]; agonist: LPS (TLR4) 0.1 ug/mL,1.3
same,NF-kB SEAP reporter activity,RAW-Dual [1]; [4],1.03
same,NF-kB SEAP reporter activity,RAW-Dual [1]; [5],1.12
same,NF-kB SEAP reporter activity,RAW-Dual [1]; [6],1.08
CSCC(N)C(=O)O (stereo unspecified),NF-kB SEAP reporter activity,RAW-Dual [2]; [7],0.816
same,NF-kB SEAP reporter activity,RAW-Dual [2]; [8],0.97
